From ChEMBL document CHEMBL1201862, “PubChem BioAssay data set” (2004)
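How tested: cells in 96-well plates exposed to compound for 48 hours at five concentrations. GI50 is the concentration that inhibits growth by half.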 The source made the active and inactive calls. No stated cut-off is given here; in the data, active = GI50 up to about 1.1 µM and inactive = higher.

Each compound was assayed on NCI-H322M (assay: DTP human tumour cell line panel, 48 h).

Structure (SMILES) | GI50
Oc1ccccc1-c1n[nH]c(-c2ccccc2O)n1 | inactive: 2.18 µM
O=S(=O)(c1cnccc1N1CCN(CCO)CC1)N1CCCC1 | inactive: > 100 µM
O=C(O)c1cc(-c2ccc3cc4c(cc3c2)OCO4)nc2ccccc12 | inactive: 24.5 µM
N=C1c2ccccc2C(=O)c2c(NCCNCCO)ccc(O)c21 | inactive: 4.34 µM
COc1cc2cnc(-c3ccccc3)cc2cc1OC | inactive: 30.3 µM
CCOC(=O)NC(Nc1ccc(OC(F)(F)F)cc1)(C(F)(F)F)C(F)(F)F | inactive: > 100 µM
COc1ccc(/C=C2\CCC(C)C3C2=NN(c2ccccc2)C3c2ccc(OC)c(OC)c2)cc1OC (configuration not stated) | inactive: 4.04 µM
CCOP(=O)(OCC)/C(C#N)=C\c1ccc(OC(C)=O)cc1 | inactive: > 100 µM
Cc1ccc(S(=O)(=O)NC(=O)N[C@@H](Cc2c[nH]cn2)C(=O)O)cc1 | inactive: > 100 µM
COc1ccc(C2Oc3c(cccc3OC)C=C2[N+](=O)[O-])cc1OC (configuration not stated) | inactive: 17.2 µM
O=[N+]([O-])/C(C(Cl)=C(Cl)Cl)=C(\SCc1ccccc1)N1CCCCC1 | inactive: 38.4 µM
Cc1cc(C)c2c(=O)n(CC(O)CN3CCN(c4ncccn4)CC3)sc2n1 (configuration not stated) | inactive: 16.6 µM
CC(=O)N1c2ccccc2C(C)(C)OC1C(Cl)(Cl)Cl (configuration not stated) | inactive: 53.7 µM
CCN(CC)CC(=O)NC1c2ccccc2Oc2ccccc21 | inactive: > 100 µM
Cc1ccccc1NC(=O)C(=O)C(c1cnc2ccc([N+](=O)[O-])cc2n1)[N+](=O)[O-] (configuration not stated) | inactive: > 100 µM
Cc1nc2ccc(F)cc2c2c1CCN2c1ccccc1 | inactive: 21.7 µM
C[C@@H]1CC(=O)C2CCCC1C2=O (some centres not stated) | inactive: > 100 µM
O=c1[nH]cc(NCCCl)c(=O)[nH]1 | inactive: > 100 µM
CCCCC1Cc2cc(OC)ccc2-c2n1c1cc(OC)ccc1[n+]2C.CCCCC1Cc2cc(OC)ccc2-c2n1c1ccc(OC)cc1[n+]2C (configuration not stated) | inactive: 11.7 µM
CC(C)(C(=O)NN)c1ccccc1 | inactive: > 100 µM
COc1ccc(C[C@H](N)C(=O)NC2C(CO)OC(n3cnc4c(N(C)C)ncnc43)C2O)cc1 (some centres not stated) | active: 0.467 µM
c1cc2cc(c1)CN1CCNCCN(CCNCC1)Cc1cccc(c1)CN1CCNCCN(CCNCC1)C2 | inactive: > 100 µM
CCCCCCc1cc2c(C)c(C)c(=O)oc2cc1OCCCOc1cc2oc(=O)c(C)c(C)c2cc1CCCCCC | inactive: > 100 µM
COC(OC)c1cccc2c1C1(O)CCC3(CC21)OCCCCO3 (configuration not stated) | inactive: > 100 µM
CCOC(=O)[C@@H](Cc1ccc(CCl)cc1)NC(C)=O | inactive: 29.8 µM

Structure (SMILES) | GI50
CCN1CCCc2cc3c(C(F)(F)F)cc(=O)oc3cc21 | inactive: > 100 µM
C=C1C(=O)O[C@H]2C[C@@]3(C)[C@H](O)CCC(=C)[C@@H]3[C@@H](OC(C)=O)[C@H]12 | inactive: 17.5 µM
NC(C(=O)O)C(N)C(=O)O (configuration not stated) | inactive: > 100 µM
N=C(N)NS(=O)(=O)c1ccc(NCc2c3ccccc3nc3ccccc23)cc1 | inactive: 58.1 µM
N#Cc1ccc(C(O)C(F)(F)c2nc3ccccc3o2)cc1 (configuration not stated) | inactive: > 100 µM
CC(=O)c1cc(S(=O)(=O)c2ccc(O)c(C(C)=O)c2)ccc1O | inactive: 40.6 µM
CC(C)CCCC(C)[C@H]1CC[C@H]2n3c(nnc3-c3ccccc3)CCC[C@]12C (some centres not stated) | inactive: 16.4 µM
CC(C)/C(Cl)=N\OC(=O)NNc1ccccc1 | inactive: 98.4 µM
COC1(OC)CC2CCCCC2=C(C)N1S(=O)(=O)c1ccccc1 (configuration not stated) | inactive: > 100 µM
CC(=O)OCC12C(=O)C[C@@H](C)C3(CC(c4ccoc4)OC3=O)C1CCC(OC(C)=O)C21CO1 (some centres not stated) | inactive: > 100 µM
CN1CCc2cc3c(c4c2C1C(O)c1ccccc1-4)OCO3 (configuration not stated) | inactive: 8.39 µM
COc1ccc(C(Nc2ncccn2)c2cc3c(cc2O)OCO3)cc1 (configuration not stated) | inactive: 24.8 µM
c1ccc(-c2cc3[nH]c4ccccc4[nH]c-3cc(-c3ccccc3)nn2)cc1 | inactive: 33.1 µM
O=P1(C(O)/C=C/c2ccccc2)N(Cc2ccccc2)[C@H](c2ccccc2)[C@@H](c2ccccc2)N1Cc1ccccc1 (some centres not stated) | inactive: 23.3 µM
N#CCc1nc(-c2cc3ccc(O)cc3oc2=O)cs1 | inactive: 39.4 µM
CSCSCC(CO)NC(=O)/C(C)=C\c1c(C)[nH]c(=O)[nH]c1=O (configuration not stated) | inactive: > 250 µM
O=C1NC(NNc2ccccc2)=N/C1=C\c1ccco1 | inactive: 44.3 µM
S=P(C1CCCCC1)(C1CCCCC1)C(c1cccnc1)N1CCCC1 (configuration not stated) | inactive: > 100 µM
CC(C)c1c(O)c(O)c2c(c1O)C(=O)C(O)=C1C(C)(C)CCC[C@@]12C | inactive: 3.25 µM
CC1=CC=C2C(C)(C)CC[C@@H]3OC(=O)[C@H]1[C@]23C | inactive: > 100 µM
CCN(CC)CCCOC(=O)/C=C/c1c(C)[nH]c(=O)[nH]c1=O | inactive: > 625 µM
CCCc1[nH]c2ccccc2c1-c1c(CCC)[nH]c2ccccc12 | inactive: 12.6 µM
O=C1c2[nH]c3ccc(Br)cc3c2CCN1Cc1ccc(Cl)cc1 | inactive: 16 µM
NC(=O)CCC(NCc1c2ccccc2[n+]([O-])c2ccccc12)C(=O)O (configuration not stated) | inactive: 88.1 µM
CN(C)C(=S)N/N=C(\C(=N/NC(=S)N(C)C)c1ccccn1)c1ccccn1 | inactive: 5.52 µM

Structure (SMILES) | GI50
CCN(CC)c1c(C)nnn1C1OC(COC(C)=O)C(OC(C)=O)C(OC(C)=O)C1OC(C)=O (configuration not stated) | inactive: > 100 µM
CCC(C)(C)c1ccc(OCCCCNC(=O)c2ccc3ccccc3c2O)c(C(C)(C)CC)c1 | inactive: 35.5 µM
Cc1nc2c(O)cc3c4c(=O)n(C)c(=O)n(C)c4n(Cc4ccccc4)c3c2nc1C | inactive: 27.6 µM
CCOC(=O)C(C)c1nc2cc(F)c(F)cc2[nH]c1=O (configuration not stated) | inactive: > 100 µM
N#Cc1cnn2cc[nH]c12 | inactive: > 100 µM
O=C(O)COCC(=O)N(CCOCCN(Cc1ccccc1)C(=O)COCC(=O)O)Cc1ccccc1 | inactive: > 100 µM
O=C(Nc1ccc(I)cc1C(=O)NCCO)c1cccs1 | inactive: > 100 µM
N=c1c2c(ncn1N)Oc1c(c(-c3ccccc3)nn1-c1ccccc1)C2c1ccc(Cl)cc1 (configuration not stated) | inactive: 1.73 µM
C1CCOC2(CCC3(CC2)OCCCCO3)OC1 | inactive: > 100 µM
O=[N+]([O-])C(=C(N1CCCCC1)N1CCCCC1)/C(Cl)=C(\Cl)Br | inactive: 24.9 µM
C1CCNCC1.CN(C)c1ccc(/C=C2/NC(=S)NC2=O)cc1 | inactive: > 100 µM
CCC(=O)O[C@H]1CC[C@H]2[C@@H]3CCC4=CC(=O)C=C[C@]4(O)[C@H]3CC[C@]12C | inactive: 43.3 µM
C=C1c2nc3ccccc3n2C=C(c2ccccc2)N1c1ccc(OC)cc1 | inactive: 34.5 µM
CC(C)(C)OC(=O)N/N=C(/N)c1ccccc1 | inactive: > 100 µM
N#CC(=S)Nc1cccc(Cl)c1 | inactive: 37.5 µM
CCC(c1nc2ccccc2c(=O)n1NC(=O)C(C)(C)C)C1(O)CCCCC1 (configuration not stated) | inactive: > 100 µM
CCCCOCCOC1=C(Cl)C(=O)c2c(O)ccc(O)c2C1=O | inactive: 1.77 µM
CCCc1nc2c(n1CC)C(=O)c1ccccc1C2=O | inactive: 51.8 µM
O=C(Nc1ccccc1Cl)c1cc(S(=O)(=O)Nc2n[nH]c(=O)n2-c2ccccc2)c(S)cc1Cl | inactive: > 100 µM
Cc1nc(O)nc2nc3ccc(Cl)cc3c(NCCNCCO)c12 | inactive: 9.14 µM
Oc1cc(Br)cc2cc(Cl)cnc12 | inactive: 10.4 µM
CC#CC(OCC)(OCC)OCC | inactive: > 100 µM
NC1C(O)C(O)C(CO)OC1n1cc(F)c(=O)[nH]c1=O (configuration not stated) | inactive: > 100 µM
C#CC(C)(C)OC(=O)C(=[N+]=[N-])C(C)=O | inactive: 9.31 µM
O=c1/c(=C/c2ccco2)sc2nc3ccccc3n12 | inactive: > 10 µM

Structure (SMILES) | GI50
C/C(CC(=O)Nc1ccccc1C)=N/NS(=O)(=O)c1ccc(C)cc1 | inactive: > 100 µM
O=C1CCCC1C(O)(C(F)(F)F)C(F)(F)F (configuration not stated) | inactive: > 100 µM
CCOC(=O)/C(=N\Nc1ccc(-n2c(C)nc3ccc(Br)cc3c2=O)cc1)C(C)=O | inactive: > 100 µM
COc1cc(/C=C/C(=O)CC(=O)/C=C/c2ccc(OC(=O)CCCCC3CCSS3)c(OC)c2)ccc1OC(=O)CCCCC1CCSS1 (configuration not stated) | inactive: > 100 µM
O=[N+]([O-])c1ccc(C(Nc2ccccc2)c2ccc3cccnc3c2O)cc1 (configuration not stated) | inactive: 6.14 µM
NS(=O)(=O)c1nnc(NC(=O)/C=C/C(=O)O)s1 | inactive: > 100 µM
CC1=CC[C@H](C)C(C)(C)C1/C=C/C(C)=C/CC[C@@]1(CO)[C@H](CCCO)/C(=C(/C)C=O)CC[C@]1(C)O (some centres not stated) | inactive: 15.1 µM
O=C(CCl)Nc1cc(Cl)c(Cl)cc1Cl | inactive: 1.98 µM
COc1nc2nccc-2c2occn12 | inactive: > 100 µM
CCCCCC(CN1CCOCC1)C(=O)/C=C/c1ccccc1 (configuration not stated) | inactive: 4.21 µM
CC1OC(n2cc(F)c(=O)[nH]c2=O)C=CC1O (configuration not stated) | inactive: > 100 µM
CCC[C@H](O)[C@@H](CNc1cc(NC(C)=O)nc(NC(C)=O)n1)N(Cc1ccccc1)Cc1ccccc1 | inactive: 21.6 µM
O=c1c(-c2ccccc2F)coc2cc(F)ccc12 | inactive: > 100 µM
O/N=N\c1nc(-c2ccccn2)nc2ccccc12 | inactive: 19.7 µM
CC(=O)O[C@H]1CCN2C(=O)C=CC(OCc3ccccc3)C12 (some centres not stated) | inactive: > 100 µM
[C-]#[N+]C(C)(C)C[C@H]1CC(C)C2CCC(C)C3([N+]#[C-])CCC(=C)C1[C@H]23 (some centres not stated) | inactive: 8.13 µM
CCCCNC1CCCCC[C@H]1O (some centres not stated) | inactive: > 100 µM
CCOc1ccc(C(C)c2cc3c(cc2OC)OCO3)cc1 (configuration not stated) | active: 0.416 µM
O=C1CCc2ccc(O)c(c2)Oc2ccc(cc2)[C@@H]2O[C@@H]2CO1 | inactive: 71.4 µM
Cc1ncc([N+](=O)[O-])n1CCNS(=O)(=O)CCCn1ccnc1[N+](=O)[O-] | inactive: > 100 µM
CCc1nc(N)nc(N)c1-c1ccc(N2CCNCC2)c([N+](=O)[O-])c1 | inactive: 7.08 µM
CC1(C)C(=O)N=C(N)N1C(=O)OCc1ccccc1 | inactive: > 100 µM
